# Source: the antibiotic and cytotoxicity screens of Wong et al. (2023)
# Some of the results follow.
# System: HepG2
# Assay: cytotoxicity call (relative viability < 0.9)
# Details: 10 µM
row,Structure (SMILES),cytotoxicity call
1,C[C@H](CO)N1C[C@H](C)[C@@H](CN(C)S(C)(=O)=O)OCCCC[C@H](C)Oc2ccc(N(C)C)cc2C1=O,inactive
2,CN(C)Cc1cn(CC[C@@H]2CC[C@H](NC(=O)Cc3cccnc3)[C@H](CO)O2)nn1,inactive
3,O=C1COC2(CN1)COC2,inactive
4,CCC(=O)Nc1nn2c(C)nnc2s1,inactive
5,COCC#Cc1ccc2c(c1)O[C@H](CN(C)S(=O)(=O)c1ccc(OC)cc1)[C@@H](C)CN([C@H](C)CO)S2(=O)=O,inactive
6,CC(C)=CCCC(C)=CCCC(C)=CCCC(C)=CCCC(C)=CCCC(C)=CCCC(C)=CCCC(C)=CCCC(C)=CCO,inactive
7,CN(C)CCC(c1ccc(Cl)cc1)c1ccccn1.O=C(O)C=CC(=O)O (configuration not stated),active
8,C[C@@H]1CN([C@@H](C)CO)C(=O)c2cccc(NC(=O)NC3CCCCC3)c2O[C@@H]1CN(C)Cc1ccc(C(=O)Nc2ccccc2N)cc1,inactive
9,O=c1[nH]c(=O)n(Cc2ccccc2)c2nc[nH]c12,inactive
10,C[C@H]1CN([C@@H](C)CO)C(=O)c2cc(NC(=O)Cc3ccccc3)ccc2O[C@@H]1CN(C)S(C)(=O)=O,inactive
11,Cc1noc(C)c1NC(=O)N(C)C[C@H]1Oc2ccc(NC(=O)CCCN(C)C)cc2C(=O)N([C@@H](C)CO)C[C@@H]1C,inactive
12,C[C@@H]1CCCCO[C@@H](CN(C)S(=O)(=O)c2ccc(Cl)cc2)[C@@H](C)CN([C@H](C)CO)C(=O)c2cc(NC(=O)c3ccccc3)ccc2O1,inactive
13,C[C@@H]1CN([C@@H](C)CO)C(=O)c2cccc(NC(=O)c3ccc(-c4nccs4)cc3)c2O[C@H]1CN(C)S(C)(=O)=O,inactive
14,O=C(O)CCCNC(=O)c1cccnc1,inactive
15,Nc1ccc2[nH]c(=S)sc2c1,inactive
16,CN1CCC[C@@H](CC2c3ccccc3Sc3ccccc32)C1,active

row,Structure (SMILES),cytotoxicity call
1,C[C@H]1CN([C@@H](C)CO)C(=O)c2cccc(NC(=O)Nc3cccc4ccccc34)c2O[C@@H]1CN(C)C(=O)Nc1ccc2c(c1)OCO2,inactive
2,O=C(C[C@@H]1C[C@@H]2c3cc(NS(=O)(=O)c4ccccc4)ccc3O[C@@H]2[C@@H](CO)O1)NC1CCCCC1,inactive
3,Cc1ccc(S(=O)(=O)N(C)C[C@@H]2OCCCC[C@@H](C)Oc3ccc(NC(=O)Cc4ccccc4)cc3C(=O)N([C@H](C)CO)C[C@@H]2C)cc1,inactive
4,C[C@@H]1CN([C@H](C)CO)C(=O)c2cc(NS(=O)(=O)c3cccs3)ccc2O[C@@H](C)CCCCO[C@H]1CN(C)C(=O)NC1CCCCC1,inactive
5,C[C@@H]1CN([C@@H](C)CO)C(=O)c2cc(NC(=O)Nc3ccc(C(F)(F)F)cc3)ccc2O[C@@H]1CN(C)Cc1ccc(C(F)(F)F)cc1,active
6,COc1ccc(N2C[C@@H](O)Cn3c2nc2c3c(=O)[nH]c(=O)n2C)cc1,inactive
7,C[C@@H]1CN([C@@H](C)CO)C(=O)c2c(c3ccccc3n2C)-c2ccccc2CO[C@@H]1CN(C)C(=O)Nc1ccc(-c2ccccc2)cc1,inactive
8,C[C@H]1CN([C@@H](C)CO)C(=O)Cc2cc(NC(=O)Nc3ccc(C(F)(F)F)cc3)ccc2O[C@@H]1CN(C)Cc1ccc(-c2ccccc2)cc1,inactive
9,CC(C)[Si](C#C[Si](C(C)C)(C(C)C)C(C)C)(O[C@H](C)c1cn([C@H](C)c2ccccc2)nn1)C(C)C,inactive
10,CN(C)CC(=O)N[C@H]1CC[C@H](CCn2cc(CN(C)C)nn2)O[C@H]1CO,inactive
11,C[C@@H]1CN([C@H](C)CO)C(=O)c2cccc(NS(=O)(=O)c3ccc(F)cc3)c2O[C@H]1CN(C)Cc1ccc(Cl)c(Cl)c1,inactive
12,C[C@H](CO)N1C[C@H](C)[C@H](CN(C)Cc2ccncc2)Oc2ccc(NS(=O)(=O)c3cccs3)cc2C1=O,inactive
13,C[C@@H]1CN([C@H](C)CO)C(=O)Cc2cc(NS(=O)(=O)c3ccccc3)ccc2O[C@H]1CN(C)Cc1ccc(C(=O)O)cc1,inactive
14,C[C@@H]1CN([C@H](C)CO)C(=O)c2cccc(NS(=O)(=O)c3ccccc3)c2O[C@H]1CN(C)C(=O)Nc1cccc2ccccc12,inactive
15,Cc1ccc(S[C@]2(C(=O)NCc3ccccc3)CC(=O)N(Cc3ccccc3Cl)[C@@H]2c2ccc(CO)cc2I)cc1,inactive
16,COc1ccc(NC(=O)Nc2ccc3c(c2)C(=O)N([C@@H](C)CO)C[C@@H](C)[C@H](CN(C)C(=O)NC(C)C)OCCCC[C@@H](C)O3)cc1,inactive
